# Among all 44,000 compounds or so, about 340 (0.77%) were called active. Roughly 5% stayed inconclusive and do not appear here. Calls come from the whole dose curve; as a rule, active = well fitted inhibition curve with a large enough effect; inconclusive = small, poorly fitted or top-dose-only effect; inactive = flat fitted curve, though single readings scatter. This is one part of the list.
# Test: Acumen qHTS Assay for Inhibitors of the mTORC1 Signaling Pathway in MEF (Tsc2-/-, p53-/-) Cells: Sytravon; note: nearly all actives have a fitted effect of over 50% in size;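 for activity change, negative = inhibition: plate controls were DMSO for no effect and rapamycin for full effect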
# Settings: phospho-rpS6 immunofluorescence/PI, 24 h; series mostly up to 38.3 µM; activity change, negative = inhibition: at the top concentration
# Summary of the method: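 Readout is phospho-S6 Alexa 488 signal normalized to PI per well, reported as % active cells with thresholds set from rapamycin (7.5 nM) and DMSO controls. Cells: Tsc2-/-, p53-/- MEFs, 24 hrs compound at 37 C; PI cell number serves as viability.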
# Potency is the fitted concentration of half-maximal effect.
Structure (SMILES),"activity change, negative = inhibition",Potency
Cc1ccc(SCC(=O)Nc2ccc3oc(-c4cccc(Cl)c4)nc3c2)cc1,inactive: -8.18%,–
O=C(Cn1ncc2c3ccccc3n(Cc3ccc(F)cc3)c2c1=O)NCc1ccccn1,inactive: -0.539%,–
O=C(NCc1ccccc1)C(=O)Nc1c2c(nn1-c1ccccc1)CSC2,inactive: -3.12%,–
COc1ccc(OC)c(CNCc2c(C(=O)O)n(Cc3cccc(F)c3)c3cc(OC)ccc23)c1,inactive: 1.8%,–
Cc1ccc(C(c2c(O)cc(C)n(Cc3ccco3)c2=O)N2CCC(C)CC2)cc1 (configuration not stated),inactive: 3.93%,–
Cc1ccccc1CCNC(=O)c1ccc2c(c1)nc1n2CCCCC1,inactive: -0.533%,–
Cc1cc(C)cc(NC(=O)C2CC(=O)N(c3ccccc3)C2)c1 (configuration not stated),inactive: -8.8%,–
Cc1ccc(-c2nc3ccccc3o2)cc1NC(=O)Cc1ccc(Cl)cc1,inactive: 8.92%,–
O=C(CCn1c(=O)c2sccc2n(Cc2ccc(F)cc2Cl)c1=O)NCc1ccc2c(c1)OCO2,inactive: -10%,–
O=C(Nc1sc2c(c1C(=O)NCC1CCCO1)CCCC2)c1cc(=O)c2ccccc2o1 (configuration not stated),inactive: -4.91%,–
Cc1cccc(-c2nc(CN3CCCC(C(=O)NCCc4ccc(Cl)cc4)C3)c(C)o2)c1 (configuration not stated),inactive: -17.9%,–
COC(=O)c1ccccc1NC(=O)CSc1nc(C)c(Cl)c(C)c1C#N,inactive: 0.769%,–
Cc1ccc(-c2cc(C(=O)Oc3ccc(C#N)cc3)no2)cc1C,inactive: -3.98%,–
CCOC(=O)c1cccc(NC(=O)c2cnc3sc(N4CCOCC4)nn3c2=O)c1,inactive: -1.88%,–
Cc1ccc2c(c1)c1c(c(=O)n(Cc3ccccc3)c(=O)n1CC(=O)Nc1ccccc1F)n2C,inactive: 1.19%,–
O=C(O)c1ccc(Cn2c(SCc3ccc(F)cc3)nc3ccncc32)cc1,inactive: -0.477%,–
Cc1ccc2nc(NC(=O)CSc3nccn3Cc3ccc(F)cc3)sc2c1,inactive: -14.9%,–
COCCNc1ccc2cc(S(=O)(=O)N3CCCCC3)ccc2n1,inactive: 8.86%,–
COCCNC(=O)CCCn1c(SCC(=O)NCc2ccc(C)cc2)nc2c(sc3ccccc32)c1=O,inactive: -11.3%,–
CCC(C)NC(=O)c1sc2nc(C)c(C(=O)Nc3ccc(C)cc3C)c(-c3ccc(NC(C)=O)cc3)c2c1N (configuration not stated),inactive: -14.6%,–
CCc1ccc(NS(=O)(=O)c2[nH]ncc2C(=O)OC)cc1,inactive: -2.66%,–
Cc1ccccc1Cn1c(=O)n(-c2ccc(Cl)cc2)c(=O)c2c3c(sc21)CCCC3,inactive: -26%,–
COc1ccc(Cn2c(C(=O)O)c(CNCc3ccc(SC)cc3)c3ccc(OC)cc32)cc1,–,active: 16.5 µM
CC(C)NC(=O)CN1C(=O)CCn2nc(-c3cn(C)c4ccccc34)cc21,inactive: -3.92%,–
Cc1cc(F)ccc1NC(=O)C1CCC(CNS(=O)(=O)c2ccc3c(c2)CCCC(=O)N3)CC1 (configuration not stated),inactive: 0.0619%,–

Structure (SMILES),"activity change, negative = inhibition",Potency
Cc1ccccc1NC(=O)c1sc2nc3c(cc2c1N)CN(Cc1ccccc1)CC3,inactive: -17.7%,–
CCCS(=O)(=O)N1CCC(C(=O)NCCOC)CC1,inactive: 9.37%,–
COc1cccc(N2CCN(C(=O)CN3CCSc4ccccc43)CC2)c1,inactive: -20%,–
Cc1ccc(-n2nc(C)c3c(C)cc(=O)n(CC(=O)Nc4cccc(C)c4C)c32)cc1,inactive: -8.67%,–
O=C(Nc1cc2c(cc1C(=O)c1ccccc1Br)OCCO2)c1cccc(Cl)c1,inactive: 8.44%,–
O=C(c1cc2c(=O)oc3ccccc3c2s1)N1CCN(c2ccccc2)CC1,inactive: 2.83%,–
COc1ccc(-c2nn(-c3ccccc3)cc2C2NC(=O)NC(C)=C2C(=O)OC(C)C)cc1OC (configuration not stated),inactive: -8.84%,–
Cc1ccc(-c2noc(-c3nnn(-c4cccc(C(F)(F)F)c4)c3N)n2)cc1,inactive: -10.4%,–
COc1ccc(N2C(=O)CSC23C(=O)N(Cc2cccc(F)c2)c2ccccc23)cc1Cl (configuration not stated),inactive: -3.26%,–
O=S(=O)(c1ccc2nc(N3CCN(c4ccccc4F)CC3)ccc2c1)N1CCCCC1,inactive: 0.942%,–
Cc1nc(-n2nc(C)c(CCC(C)C)c2C)sc1C(=O)Nc1ccc(Cl)cc1,inactive: 0.381%,–
CCOC(=O)c1c(S(=O)(=O)N2CCCC(C(=O)NCc3ccccc3OC)C2)c(C)n(C)c1C (configuration not stated),inactive: 1.41%,–
CCc1nc(SC)ncc1C(=O)N1CCN(c2cc(C)ccc2C)CC1,inactive: -13.7%,–
Cc1ccc(NC(=O)c2ccc(=O)n(Cc3ccccc3C)c2)c(C)c1,inactive: 0.557%,–
Cc1ccc(CN2CCCn3nc(C(=O)NCCc4cccc(C)c4)cc3C2=O)cc1,inactive: 1.24%,–
NC(=O)C1CCN(S(=O)(=O)c2ccc(N3CCCCS3(=O)=O)cc2)CC1,inactive: 1.04%,–
COc1cccc(CNC(=O)C2CCCN(c3nc4ccccc4n4cccc34)C2)c1 (configuration not stated),inactive: 8.55%,–
Cc1nn(C)c2c1c(-c1ccccc1)cc(=O)n2CC(=O)NC(C)C,inactive: -9.38%,–
Cc1ccc(CN2CCCn3nc(C(=O)NCCc4ccccc4Cl)cc3C2=O)cc1,inactive: -2.13%,–
COc1ccc(CCNCc2ccc3c(c2)n(C)c(=O)n3C)cc1OC,inactive: -4.8%,–
Cc1ccc(CNC(=O)c2ccc3c(O)c(S(=O)(=O)c4ccc(Cl)cc4)c(=O)[nH]c3c2)cc1,inactive: -1.89%,–
Clc1ccc(Nc2c(-c3ccccc3Cl)nc3ccc(Cl)cn23)cc1,inactive: -1.25%,–
Cc1c(C(=O)Nc2ccccc2Cl)oc2ccc(S(=O)(=O)N3CCCCC3)cc12,inactive: -3.71%,–
CCCn1c2ccc(F)cc2c2nnc(SCCN(CC)CC)nc21,inactive: -2.45%,–
Cc1ccc(C(=O)Nc2cccc(C(=O)OCc3cc(=O)n4nc(C5CC5)sc4n3)c2)cc1,inactive: 0%,–

Structure (SMILES),"activity change, negative = inhibition",Potency
CCCOc1ccc(C2CC(=O)Nc3c2c(=O)n(C)c(=O)n3C)cc1OC (configuration not stated),inactive: 5.64%,–
COCC(C)Nc1ncnc2c1cnn2-c1ccc(C)c(C)c1 (configuration not stated),inactive: 4.7%,–
COc1ccc(-n2nc(C(=O)NCc3ccc(F)cc3Cl)c3c4ccccc4n(C)c3c2=O)cc1Cl,inactive: -5.31%,–
CCOc1ccc(N2CC(NC(=O)C3CC3)CC2=O)cc1 (configuration not stated),inactive: -8.09%,–
CCCCN(CC)CCCNC(=O)Cn1ncc2c3ccccc3n(Cc3ccc(F)cc3)c2c1=O,inactive: -3.71%,–
Cc1cccc(C(=O)Oc2c(Sc3ccccc3)c(C)nn2C(C)(C)C)c1,inactive: 1.98%,–
Cn1c(=O)c(=O)n(C)c2cc(S(=O)(=O)N3CCN(c4ccccc4)CC3)ccc21,inactive: -6.8%,–
CC(NC(=O)c1ccc2c(c1)sc1nc(-c3ccccc3)cn12)C12CC3CC(CC(C3)C1)C2 (configuration not stated),inactive: 3.45%,–
COc1ccc(S(=O)(=O)NCc2nc3nc(C)cc(C)n3n2)cc1OC,inactive: 4.41%,–
CCc1nn(CC(=O)Nc2ccc(NC(C)=O)cc2)c(=O)c2cc3sccc3n12,inactive: 1.41%,–
COc1ccc(CNC(=O)CSc2c3c(nc4ccc(Cl)cc24)CCCC3)cc1,inactive: -7.05%,–
Cc1ccc(S(=O)(=O)N(CCc2ccccc2)CC(=O)Nc2ccc(Br)cc2)cc1,inactive: 22.5%,–
COCCNC(=O)CN1C(=O)c2cccnc2Oc2ccc(Cl)cc21,inactive: -0.407%,–
CCOc1ccc(NC(=O)N2CCN3CCCCC3C2)cc1 (configuration not stated),inactive: -6.94%,–
CCOC(=O)c1ccc(N2C(=O)c3n[nH]c(-c4ccco4)c3C2c2cccc(O)c2)cc1 (configuration not stated),inactive: -3.91%,–
Cc1cccc(NC(=O)c2oc3ccccc3c2NC(=O)Cc2coc3ccc(C(C)C)cc23)c1,inactive: 1.12%,–
COc1ccc(-c2nc(CCNC(=O)c3ccc(Br)o3)cs2)cc1,inactive: -29.5%,–
O=[N+]([O-])c1cc(-c2nc(-c3ccccc3)no2)ccc1N1CCOCC1,inactive: -3.8%,–
CCOc1ccccc1NC(=O)C1=C(C)Nc2ncnn2C1c1ccc(C)o1 (configuration not stated),inactive: 4.24%,–
CCc1ccccc1NC(=O)Cn1c(SCc2ccc(F)cc2)nc2ccncc21,inactive: -1.68%,–
CCc1cccc(CC)c1NC(=O)CCS(=O)(=O)c1ccc2c(c1)CCN2C(C)=O,inactive: -0.205%,–
COc1ccc(-c2nc(CNS(=O)(=O)c3cccc(F)c3)cs2)cc1,inactive: 0.4%,–
O=C(CCCn1c(=O)c2cccn2c2ccccc21)NCc1ccccc1Br,inactive: 6.69%,–
Cc1ccc(Nc2sc(C(=O)c3ccccc3)c(N)c2C(N)=O)cc1,inactive: -8.29%,–
CC1CCN(C(=O)C2COc3ccccc3C2)CC1 (configuration not stated),inactive: 1.66%,–

Structure (SMILES),"activity change, negative = inhibition",Potency
CNC(=O)c1cnc2sc(N3CCCCCC3)nn2c1=O,inactive: -1.05%,–
COc1ccc(C(=O)Nc2nc3ccccc3n2CCOc2ccc(Cl)cc2)cc1,inactive: -7.16%,–
CCOc1ccc(N(CC)C(=O)CCc2nc(-c3ccccc3F)no2)cc1,inactive: -25%,–
CCC(Sc1nnc(-c2ccc(OC)c(OC)c2)c(-c2ccc(OC)c(OC)c2)n1)C(=O)NC1CCCC1 (configuration not stated),inactive: -8.46%,–
Cc1cccn2c(=O)cc(CSc3nnc(NC(=O)c4ccc(F)cc4)s3)nc12,inactive: -6.82%,–
CCc1ccc(NC(=O)C(Cc2ccccc2)NS(=O)(=O)c2ccc3c(c2)c(=O)n(C)c(=O)n3C)cc1 (configuration not stated),inactive: -8.98%,–
Cc1nc(-n2nc(C)c(CCC(C)C)c2C)sc1C(=O)Nc1cccc(Cl)c1,inactive: 1.94%,–
Cc1cccc(C)c1NC(=O)c1sc(-n2nc(C)c(Cc3ccc4c(c3)OCO4)c2C)nc1C,inactive: 0.84%,–
Clc1ccc(NCc2nc3ccccc3n2CCOc2ccccc2)cc1,inactive: -13.6%,–
COc1ccc(Cl)cc1NC(=O)Cn1c(=O)c2ccccc2n2nncc12,inactive: -1.14%,–
Cc1ccc(NC(=O)Cn2nc3c(cc2=O)CCCC3)cc1Cl,inactive: 1.31%,–
CCN(C(=O)CSc1nc2ccccc2nc1Cc1ccc(F)cc1)c1cccc(C)c1,inactive: 3.89%,–
CCc1ccc(NC(=O)Cn2cc(S(=O)(=O)c3ccc(F)cc3)c(=O)c3cc(OC)ccc32)cc1,inactive: -18.4%,–
CC(=O)c1ccc(NC(=O)CCc2c(C)nn(-c3ccc4nnc(C)n4n3)c2C)cc1,inactive: -1.29%,–
CC(C)CC(C(=O)NCC1CCN(Cc2ccc(F)cc2)CC1)N1Cc2ccccc2C1=O (configuration not stated),inactive: -18.4%,–
COc1ccc(NC(=O)C2CCC(CNS(=O)(=O)c3ccc(Br)s3)CC2)c(OC)c1 (configuration not stated),inactive: -2.45%,–
COc1cc(NC(=O)N2CCC(CN3CCCCCC3)CC2)cc(OC)c1OC,inactive: -16%,–
O=C(CSc1nc(-c2ccccc2)nc2cc(=O)[nH]n12)Nc1ccccc1,inactive: -2.2%,–
Cc1ccccc1C(=O)N1c2ncnn2C2(CCCCC2)[C@@H]2CCCC[C@@H]21,inactive: -18.3%,–
CCc1nc(-c2ccc(C)c(S(=O)(=O)N3CCN(c4ccc(C(C)=O)cc4)CC3)c2)no1,inactive: 3.46%,–
O=C(NCCn1cc(SCc2ccc(F)cc2)c2ccccc21)c1cccs1,inactive: -1.22%,–
CCn1cc(C(=O)N2CCN(c3cc(Cl)ccc3C)CC2)c(=O)c2cc(S(=O)(=O)N3CCCCC3)ccc21,inactive: -1.13%,–

# Reference: PubChem BioAssay AID493208 (National Center for Advancing Translational Sciences (NCATS), 2011)
